The values that follow come from PubChem BioAssay AID1745853 (National Center for Advancing Translational Sciences (NCATS), 2022).

The list shows a part of the results. Shown are side measurements of this screen, not its main read-out; they come without a call.

What all share (experiment): Primary Screen for Target Class Profiling of Small Molecule Inhibitors of Methyltransferases
The target of assay [1] is Glycine N-methyltransferase (Homo sapiens) (UniProt Q14749). The note with it: purified enzyme, MTase-Glo SAH luminescence; measured here: GNMT inhibition; at 40 µM; stronger effect = lower value. An outline of the steps:
(§1)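 Each enzyme was assayed with SAM and its substrate. SAH formation detected by MTase-Glo luminescence; single-point 40 uM screen[…].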

Assay [2] addresses Guanidinoacetate N-methyltransferase (Homo sapiens) (UniProt Q14353). The note with it: purified enzyme, MTase-Glo SAH luminescence; measured here: GAMT inhibition; at 40 µM; stronger effect = lower value. The method, boiled down: as §1
Assay [3] addresses Histamine N-methyltransferase (Homo sapiens) (UniProt P50135). The note with it: purified enzyme, MTase-Glo SAH luminescence; measured here: HNMT inhibition; at 40 µM; stronger effect = lower value. An outline of the steps: as §1
The target in assay [4] is Nicotinamide N-methyltransferase (Homo sapiens) (UniProt P40261). The following applies: purified enzyme, MTase-Glo SAH luminescence; measured here: NNMT inhibition; at 40 µM; stronger effect = lower value. The method, boiled down: as §1
The target of assay [5] is Phenylethanolamine N-methyltransferase (Homo sapiens) (UniProt P11086). The note with it: purified enzyme, MTase-Glo SAH luminescence; measured here: PNMT inhibition; at 40 µM; stronger effect = lower value. An outline of the steps: as §1
On the % scale 0 is the no-effect control and ±100 the full control effect.

With `CN1C(=O)c2cc(C(=O)N3CCN(Cc4ccccc4)CC3)nn2CC1(C)C(=O)NC1CCCCC1` (stereo not given), the activity change, negative = inhibition in assay [1] was -4.04%; in assay [2], -6.15%; in assay [3] it was 1.75%; in assay [4] it was -1.13%; in assay [5] it was -2.27%.
The matching figures for `CN(C)c1ccc(CNC(=O)Cn2ccc3cc(S(=O)(=O)N4CCCCC4)ccc32)cc1`: -2.66%, -1.46%, -2.76%, -5.29% and -2.82%.
For `CN1CCN(C(=O)c2cc(-c3cccnc3)nc3c2cnn3C)CC1` the same measures were -4.94%, -5.29%, -3.28%, -10.4% and -3.11%.
The matching figures for `COc1ccc(OCC2CN(Cc3cccs3)[S+](=O)([O-])c3cccnc3O2)cc1` (stereo not given): -4.13%, -1.04%, 1.62%, -5.66% and -18.5%.
As to `CCN(CC)CC#CCOC(=O)C(O)(c1ccccc1)C1CCCCC1` (stereo not given), the activity change, negative = inhibition was -2.58% in assay [1]; 6.56% in assay [2]; 0.179% in assay [3]; -11.5% in assay [4]; 2.95% in assay [5].
As for `CC1(C)C[C@H]2C3=CCC4[C@@]5(C)CC[C@H](O[C@H]6O[C@H](C(=O)O)[C@@H](O)[C@H](O)[C@H]6O[C@H]6O[C@H](CO)[C@@H](O)[C@H](O)[C@H]6O[C@@H]6O[C@H](CO)[C@@H](O)[C@H](O)[C@H]6O)[C@](C)(CO)C5CC[C@@]4(C)[C@]3(C)CC[C@@]2(C)[C@H](O[C@@H]2OC[C@H](O)[C@H](OC3O[C@H](CO)[C@@H](O)[C@H](O)[C@H]3O)[C@H]2O)[C@@H]1O` (stereo not given in full), the activity change, negative = inhibition in assay [1] was 4.44%; in assay [2], 5.64%; in assay [3], 4.74%; in assay [4], -7.2%; in assay [5] it was 2.93%.
For `O=C1CCCN1CCCNc1nc2c(-c3cccc(F)c3)nnn2c2ccc(Cl)cc12` the same measures were -6.05%, 5.04%, 5.33%, 5.07% and -3.03%.
For `O=C1N(Cc2ccccc2F)CCOC12CCN([S+](=O)([O-])c1cccnc1)CC2` the same measures were -5.39%, 2.66%, 1.24%, 1.19% and 3.66%.
For `Cc1cc(C(=O)N2c3ccccc3CC2c2nnc(C(C)C)o2)nn1C` (stereo not given) the same measures were -2.3%, 2.52%, 0.881%, -0.182% and -8.46%.
Take `CC[C@@H](C)[C@H]1O[C@]2(CC[C@H]1C)C[C@@H]1C[C@@H](CC=C(C)[C@@H](O[C@H]3C[C@H](OC)[C@@H](O[C@H]4C[C@H](OC)[C@@H](O)[C@H](C)O4)[C@H](C)O3)[C@@H](C)C=CC=C3CO[C@@H]4[C@H](O)C(C)=C[C@@H](C(=O)O1)[C@]34O)O2`: the activity change, negative = inhibition was -1.75% in assay [1]; 4.89% in assay [2]; -0.536% in assay [3]; -12.2% in assay [4]; -1.68% in assay [5].
For `OC(CCN1CCCCC1)(c1ccccc1)C1CC2C=CC1C2` (stereo not given) the same measures were -2.92%, 7.77%, -3.26%, -7.1% and 7.82%.
For `COc1ccc(NC(=O)c2ccc3c(c2)N(C(=O)c2ccc(OC)cc2)CC3)cc1` the same measures were -3.5%, -1.89%, -0.985%, -4.75% and -3.05%.
Take `COc1ccc(NC(=O)c2ccc(-c3ccc(-c4nnc(C)o4)cc3C)cc2)cc1N1CCN(C)CC1`: the activity change, negative = inhibition is -19.4% in assay [1]; 5.75% in assay [2]; -17.2% in assay [3]; -25.7% in assay [4]; 0.394% in assay [5].
For `COc1ccccc1CN1C(=O)c2cc(-c3cccs3)nn2CC1(C)C(=O)NC1CCCCC1` (stereo not given) the same measures were -0.286%, 4.66%, 3.65%, 4.65% and -1.48%.
The matching figures for `Cc1ccc(N2C(=O)c3nc4ccccc4n3CC2(C)C(=O)NC2CCCC(C)C2C)cc1` (stereo not given): 2.46%, 0.997%, 0.5%, 5.22% and -1.3%.
Consider `CC(C)CCN1C(=O)c2ccccc2CC1(C)C(=O)NC1CCCCCC1` (stereo not given), for which the activity change, negative = inhibition in assay [1] was -6.24%; in assay [2] it was 6.01%; in assay [3], 3.63%; in assay [4], -1.19%; in assay [5] it was -4.35%.
For `CCCn1c(=O)c2ccc(C(=O)NC3CCCC3)cc2n2c(=O)n(Cc3cc(C)ccc3C)nc12` the same measures were 1.82%, 0%, 8.59%, -4.25% and -0.478%.
In the case of `CCc1ccc(NC(=O)CSc2nnc3n(Cc4ccc(F)cc4)c(=O)c4ccccc4n23)cc1`, the activity change, negative = inhibition stood at 4.66% in assay [1]; 4.52% in assay [2]; 11.1% in assay [3]; 3.89% in assay [4]; 4.05% in assay [5].
The matching figures for `COc1ccc(OC)c2c1cc1n2CC(C)(C(=O)NC2CCC(C)CC2)N(Cc2cccs2)C1=O` (stereo not given): -7.24%, -2.97%, -4.68%, -5.46% and -4.3%.
The matching figures for `Cc1ccc(C(=O)N2CCC(N3C(=O)CCC3C(=O)NCc3cccnc3)CC2)cc1F` (stereo not given): 0.239%, -2.26%, 1.47%, -3.84% and 14.3%.
The matching figures for `O=C1Nc2ccccc2C(O)(c2ccccc2)C1O` (stereo not given): 0%, -3.54%, 1.97%, -15.4% and 3.47%.
On to `CCCN(Cc1nccn1C)C(=O)c1cn(Cc2ccc(F)cc2)nn1`, for which the activity change, negative = inhibition amounted to 1.02% in assay [1]; 2.83% in assay [2]; 2.32% in assay [3]; 1.59% in assay [4]; 0.837% in assay [5].
For `C[C@@H]1O[C@@H](O[C@H]2[C@H](O[C@H]3[C@H](O[C@H]4CC[C@@]5(C)C(CC[C@]6(C)C5CC=C5[C@@H]7CC(C)(C)C[C@@H](O)[C@]7(C)CC[C@]56C)[C@@]4(C)CO)O[C@H](C(=O)O)[C@@H](O)[C@@H]3O)OC[C@H](O)[C@@H]2O)[C@H](O)[C@H](O)[C@H]1O` (stereo not given in full) the same measures were -0.266%, -2.41%, -1.26%, -26.9% and 5.08%.
For `CCOc1ccc(C(=O)Cn2nc3n(Cc4ccc(C)cc4)c(=O)c4ccccc4n3c2=O)cc1` the same measures were 5.37%, 0%, 7.39%, 2.3% and 5.86%.
The matching figures for `COc1ccc(OC)c(NC(=O)Cc2cccn2-c2ccc(Cl)cc2)c1`: -4.4%, -0.552%, -1.17%, -5.37% and -5.12%.
On to `COc1ccccc1CNC(=O)c1ccc2c(=O)nc3c(-c4ccccc4F)n[nH]n3c2c1`, for which the activity change, negative = inhibition was -19.3% in assay [1]; -0.176% in assay [2]; -2.3% in assay [3]; -3.55% in assay [4]; -5.25% in assay [5].
The matching figures for `CCc1cc(C(=O)N2CC[C@@H]3[C@@H](CCC(=O)N3CCN)C2)n(C)n1`: -1.41%, -3.08%, -0.356%, -2.86% and -2.61%.
On to `Cc1cccc(N2CCN(C(=O)CCc3nnc4n(CC(C)C)c(=O)c5ccccc5n34)CC2)c1C`, for which the activity change, negative = inhibition in assay [1] was -19.4%; in assay [2], 4.89%; in assay [3], 1.28%; in assay [4], -55.1%; in assay [5] it was -2.57%.
